Screen size: about 94,000 compounds; about 4,000 (4.3%) were called active. The inconclusive results got no clear call from the source; some entries with a clear call stand among them for comparison. The call rests on the fitted dose curve; in most records, active means well fitted inhibition curve with a large enough effect; inconclusive means small, poorly fitted or top-dose-only effect; inactive means no such curve, though single readings can be large or run the other way. Where the call is inconclusive, the potency comes from a doubtful curve fit.
test: Cytotoxic Profiling in NIH 3T3 Cell Line of Diverse Libraries Using Quantitative High-Throughput Screening; conditions: NIH 3T3 viability, CellTiter-Glo ATP luminescence, 48-72 h; activity change, negative = cytotoxicity: at 96.7 µM (top of the series) unless noted; series mostly up to 96.7 µM; further: nearly all actives have a fitted effect of over 55% in size
In short: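 Luminescent ATP readout (CellTiter-Glo, 10 min RT) after 48 or 72 hr compound exposure of NIH 3T3 cells seeded at 400 cells/well in 1536-well format; quantitative HTS.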
On the % scale 0 is the no-effect control and ±100 the full control effect; potency means the concentration at half of the fitted maximal effect; tags describe the fitted curve by direction and shape.

Row | Compound | Potency | activity change, negative = cytotoxicity
1 | CN(C)CC(=O)N1Cc2ccccc2CC2(CCCCN2Cc2ccccc2)C1 (centres undefined) | inconclusive: 70.8 µM [inhibitor, single point] | 
2 | Cc1c(F)cccc1NC(=O)N1CCC(n2cnnc2C2CC2)C1 (centres undefined) |  | inactive: -6.72%
3 | O=C(c1nnc(CNCCN2CCCC2)n1-c1ccccc1)N1CCC[C@@H]1C(c1ccccc1)c1ccccc1 | inconclusive: 50.1 µM [inhibitor, partial curve, poor fit] | 
4 | Cc1cc(Cl)cc(Cl)c1CNCC1(O)CCCNC1 (centres undefined) | inconclusive: 79.4 µM [inhibitor, partial curve, poor fit] | 
5 | CC(=O)NC[C@H]1CCN(C(=O)c2cncc(Br)c2)C[C@H]1N(C)C |  | inactive: -6.7%
6 | COc1ccc(C(=O)N[C@@H]2CN(Cc3ccccc3)C[C@H]2CN(C)C)cn1 | active: 31.6 µM | 
7 | Cc1ncc(CC(=O)NCc2ccc3[nH]c(-c4ccccc4F)c(C)c3c2)c(=O)[nH]1 | inconclusive: 79.4 µM [inhibitor, partial curve, poor fit] | 
8 | O=C(NC[C@@H]1CCCN1)C1CCN(c2nc(-c3ccccc3)nc3c2CCC3)CC1 | active: 22.4 µM | 
9 | Cc1nn2c(c1-c1ccnn1C(C)C)N(C(=O)c1ccc(Oc3ccccc3)cc1)CCC2 | inconclusive: 15.8 µM [inhibitor, full curve, poor fit] | 
10 | CC(C)CCNC(=O)c1c(OCC2CC2)cc(=O)n2c1CCCCC2 | active: 35.5 µM | 
11 | CCN1C(=O)CCC2(C(=O)NC3CCCC3)CCCC=C12 (centres undefined) |  | inactive: -8.23%
12 | Cc1ccc(-c2nnc(C3CN(C(=O)c4sc(C)nc4C)CC34CCOCC4)o2)cc1 (centres undefined) |  | inactive: -23.1%
13 | CCOc1cccc(CN2C[C@@H](Oc3ccccc3)C[C@@H]2C(=O)NC)c1 |  | inactive: -15.3%
14 | C[C@@H](NC(=O)N1CCOC[C@H]1c1ncc(-c2ccc(OC(F)(F)F)cc2)[nH]1)c1ccccc1 | inconclusive: 44.7 µM [inhibitor, partial curve, poor fit] | 
15 | COc1ccccc1-c1cc(C(=O)N(C)CC#N)c2cnn(C)c2n1 |  | inactive: -28.3%
16 | COC1CCC(C(=O)N2CCCn3nc(C)c(-c4ccccc4C(C)C)c32)CC1 (centres undefined) | inconclusive: 100 µM [inhibitor, single point] | 
17 | Cn1ncc2c(C(=O)NCc3cccs3)cc(-c3ccccc3C(F)(F)F)nc21 | inconclusive: 50.1 µM [inhibitor, partial curve, poor fit] | 
18 | Cc1ncsc1C(=O)N1CCc2c(n(Cc3cccnc3)n(CCc3ccccc3)c2=O)C1 | inconclusive: 44.7 µM [inhibitor, partial curve, poor fit] | 
19 | O=C1CO[C@H]2CCN(Cc3cccc(OC(F)(F)F)c3)CC[C@@H]2N1Cc1c[nH]c2ccccc12 | inconclusive: 50.1 µM [inhibitor, partial curve, poor fit] | 
20 | CCNC(=O)O[C@@H]1CO[C@H]2[C@@H]1OC[C@@H]2NC(=S)Nc1ccc(N(C)C)cc1 | inconclusive: 79.4 µM [inhibitor, partial curve, poor fit] | 
21 | COc1ccc(-c2cc(N3CCC(NC(=O)c4cccc(C#N)c4)C3)n[nH]2)cc1 (centres undefined) | inconclusive: 70.8 µM [inhibitor, single point] | 
22 | COc1ccc([C@H](C)NC(=O)c2c(C)noc2-c2cc(OC)c(OC)c(OC)c2)cc1 | inconclusive: 56.2 µM [inhibitor, partial curve, poor fit] | 

Row | Compound | Potency | activity change, negative = cytotoxicity
23 | O=C(NCc1cccnc1)c1cc(-c2ccc(F)cc2)c2nncn2n1 |  | inactive: -1.51%
24 | CCc1cccc(NC(=O)c2ccc3c(c2)N(C)C2CCCN2C3=O)c1 (centres undefined) | inconclusive: 50.1 µM [inhibitor, single point] | 
25 | Cn1ncc2c(C(=O)NCc3ccc(Cl)cc3)cc(-c3ccsc3)nc21 | active: 31.6 µM | 
26 | CCCc1noc(-c2cn(C3CCN(C(=O)c4cccc(F)c4)CC3)nn2)n1 | active: 35.5 µM | 
27 | COc1ccc(CCNC(=O)C2CCCN(Cc3cccc(-c4ccc(F)cc4F)c3)C2)cc1 (centres undefined) | inconclusive: 44.7 µM [inhibitor, partial curve, poor fit] | 
28 | COc1ccc(CNC(=O)Nc2cccc(-c3ccc(N4CCCCC4)nn3)c2)cc1 | inconclusive: 31.6 µM [inhibitor, partial curve] | 
29 | CC1=NS(=O)(=O)N(Cc2ccccc2)C=C1C(=O)OCc1noc(-c2cccc(C)c2)n1 | inconclusive: 14.1 µM [inhibitor, full curve] | 
30 | O=C(c1ccccc1Cl)N1CCC(C(=O)N2CCC(c3nc4ncccc4[nH]3)CC2)CC1 |  | inactive: 1.82%
31 | Cc1ccccc1Nc1cc2c(nc1-c1ccccc1)nc(C(=O)NCCN(C)C)n2C | active: 31.6 µM | 
32 | CC(C)CCNC(=O)C1CC(=O)N(c2n[nH]c3cc(Br)ccc23)C1 (centres undefined) |  | inactive: -0.622%
33 | COc1cccc(CN2CCCC(Cc3ncc(C)n3Cc3ccccc3)C2)c1OC (centres undefined) | inconclusive: 50.1 µM [inhibitor, partial curve, poor fit] | 
34 | COCCCN1C(=O)CC[C@H]2CN(C(=O)c3ccc(CN)cc3)CC[C@H]21 |  | inactive: -4.91%
35 | CC(=O)NC1(C)CN(Cc2ccc(-c3ccc4c(ccn4C)c3)s2)C1 | inconclusive: 56.2 µM [inhibitor, partial curve, poor fit] | 
36 | O=C(c1ccc2nc[nH]c2c1)N1CCCN(c2cc(-c3ccc(Cl)cc3)[nH]n2)CC1 |  | inactive: -9.63%
37 | Cc1cc(Cl)ccc1OCC(=O)N1CCC2(CCCNC2=O)C1 (centres undefined) |  | inactive: -7.94%
38 | COc1ccccc1-c1ccc(CN2CCC(N[S+](=O)([O-])c3ccc(C)cc3)C2)cc1 (centres undefined) | inconclusive: 44.7 µM [inhibitor, partial curve, poor fit] | 
39 | Fc1ccc(CCNc2nccc(-c3cccnc3)n2)cc1 | inconclusive: 44.7 µM [inhibitor, partial curve, poor fit] | 
40 | COc1ccc(-c2noc(CC3CCN(C(=O)c4ccc(C)nc4)CC3)n2)cc1 | inconclusive: 39.8 µM [inhibitor, partial curve, poor fit] | 
41 | Cc1noc2c(NC3CCN(C)CC3)cc(-c3ccc(Cl)cc3)nc12 | active: 10 µM | 
42 | Cc1ccccc1-n1nnnc1C(c1ccccc1)N(C)C(=O)c1cn[nH]n1 (centres undefined) | inconclusive: 89.1 µM [inhibitor, single point] | 
43 | COCCOCc1nc(C2CCN(C(=O)CC3CCCCC3)C2)no1 (centres undefined) |  | inactive: -14.3%
44 | CC(C)CCCC1CN(C(=O)c2cn(C3CCC(N)CC3)nn2)CCO1 (centres undefined) | inconclusive: 44.7 µM [inhibitor, partial curve] | 

Row | Compound | Potency | activity change, negative = cytotoxicity
45 | CN(C(=O)c1cc(-c2ccc(C(F)(F)F)cc2)nc2c1cnn2C)c1ccccc1 | inconclusive: 50.1 µM [inhibitor, partial curve, poor fit] | 
46 | COc1ccc(CN2CCc3nc(C(=O)NCc4ccncc4)oc3CC2)cc1OC | inconclusive: 22.4 µM [inhibitor, full curve] | 
47 | O=C(COc1ccc(F)cc1)N1CCOc2ccc(N3CCOCC3)cc2C1 | inconclusive: 44.7 µM [inhibitor, partial curve, poor fit] | 
48 | COc1cccc([S+](=O)([O-])N2CCc3nc(C4CC4)nc(-c4ccc(Cl)cc4)c3C2)c1 | inconclusive: 31.6 µM [inhibitor, full curve] | 
49 | O=C(N1CCC(n2cc(-c3nc(-c4ccccc4)no3)nn2)C1)C1(c2ccccc2)CC1 (centres undefined) | inconclusive: 56.2 µM [inhibitor, partial curve, poor fit] | 
50 | O=C1Nc2ccccc2C2(CCN(S(=O)(=O)c3cccc(C(F)(F)F)c3)C2)O1 (centres undefined) | inconclusive: 44.7 µM [inhibitor, partial curve, poor fit] | 
51 | O=C(NCc1cc(F)cc(F)c1)c1ccc(N2CC3CC(C2)[C@H]2CCCC(=O)N2C3)nc1 (some centres undefined) |  | inactive: -25.4%
52 | CCCCNc1ncc(C(=O)O)c(C)n1 |  | inactive: 3.35%
53 | COc1ccc(-c2noc(Nc3ccc4c(c3)OCCO4)n2)cc1 |  | inactive: 1.48%
54 | CCOc1ccccc1C(=O)NCc1nnc2cc(-c3nc(C(C)C)no3)ccn12 | inconclusive: 35.5 µM [inhibitor, partial curve, poor fit] | 
55 | COc1cccc(Nc2ccc3nnc(-c4cc(OC)ccn4)n3n2)c1 | inconclusive: 56.2 µM [inhibitor, partial curve, poor fit] | 
56 | CN1CC(=O)N(c2ccccc2F)Cc2c(NC3CCC3)ncnc21 | inconclusive: 44.7 µM [inhibitor, partial curve, poor fit] | 
57 | COc1cccc(-c2c(C(=O)NCc3cccc(Cl)c3)nc3sccn23)c1 | inconclusive: 50.1 µM [inhibitor, partial curve, poor fit] | 
58 | O=C(Nc1ccc(F)cc1)c1ccc2nc(-c3cccnc3Cl)oc2c1 | inconclusive: 39.8 µM [inhibitor, partial curve, poor fit] | 
59 | O=C1CCN(S(=O)(=O)c2cccs2)CCCC(c2nc(-c3ccccc3)no2)CCN1 (centres undefined) |  | inactive: -0.171%
60 | O=C(NCc1ccccc1)C1(Oc2ccc(Cl)cc2)CCNCC1 | inconclusive: 70.8 µM [inhibitor, partial curve, poor fit] | 
61 | CS(=O)(=O)NCC(=O)N1CCCCCNC(=O)CC1c1ccccc1 (centres undefined) |  | inactive: 2.3%
62 | CN(C)Cc1cc(C[C@@H]2C[C@H](NS(=O)(=O)c3ccc(F)cc3)C2(C)C)no1 | inconclusive: 89.1 µM [inhibitor, partial curve] | 
63 | N#CC1CCN(C(=O)C2CCCCN2Cc2ccc(-c3ccsc3)cc2)CC1 (centres undefined) | inconclusive: 35.5 µM [inhibitor, partial curve] | 
64 | CCc1nc2c(c(-c3ccc(Cl)cc3)n1)CN(C(=O)c1ccc(C)cc1)CC2 | inconclusive: 50.1 µM [inhibitor, partial curve, poor fit] | 

— PubChem BioAssay AID1345082 (National Center for Advancing Translational Sciences (NCATS), 2018)
